Reference: publication PMC9911399, “Two distinct binding modes provide the RNA-binding protein RbFox with extraordinary sequence specificity”
Numbering of substitutions follows the chain as printed; changes in the protein carry UniProt numbers. Some of the results follow.

B1: AUCGGGC (DNA:RNA)
RNA: GGGAGACCGGAAUUCAGAUUGUCCAUCGGGCUUAAAUCCCGUCGUAGCCACCA
DNA 1: CAATCTGAATTCCGGTCTCCC
DNA 2: TGGTGGCTACGACGGGATT
B2: CUGAUGG (DNA:RNA)
RNA: B1 RNA with A25C, C27G, G28A, G29U, C31G
DNA 1: CAATCTGAATTCCGGTCTCCC
DNA 2: TGGTGGCTACGACGGGATT
B3: GAGUUCG (DNA:RNA)
RNA: GGGAGACCGGAAUUCAGAUUGUCCGAGUUCGUUAAAUCCCGUCGUAGCCACCA
DNA 1: CAATCTGAATTCCGGTCTCCC
DNA 2: TGGTGGCTACGACGGGATT
B4: CUCCUUA (DNA:RNA)
RNA: B1 RNA with A25C, G28C, G29U, G30U, C31A
DNA 1: CAATCTGAATTCCGGTCTCCC
DNA 2: TGGTGGCTACGACGGGATT
B5: GUCACUC (DNA:RNA)
RNA: B1 RNA with A25G, G28A, G29C, G30U
DNA 1: CAATCTGAATTCCGGTCTCCC
DNA 2: TGGTGGCTACGACGGGATT
B6: ACUCAGU (DNA:RNA)
RNA: B1 RNA with U26C, C27U, G28C, G29A, C31U
DNA 1: CAATCTGAATTCCGGTCTCCC
DNA 2: TGGTGGCTACGACGGGATT
B7: AUGCCAU (DNA:RNA)
RNA: B1 RNA with C27G, G28C, G29C, G30A, C31U
DNA 1: CAATCTGAATTCCGGTCTCCC
DNA 2: TGGTGGCTACGACGGGATT
B8: UCACUUU (DNA:RNA)
RNA: B3 RNA with G25U, A26C, G27A, U28C, C30U, G31U
DNA 1: CAATCTGAATTCCGGTCTCCC
DNA 2: TGGTGGCTACGACGGGATT
B9: GUCGCGG (DNA:RNA)
RNA: B1 RNA with A25G, G29C, C31G
DNA 1: CAATCTGAATTCCGGTCTCCC
DNA 2: TGGTGGCTACGACGGGATT
B10: CAUAUCG (DNA:RNA)
RNA: B3 RNA with G25C, G27U, U28A
DNA 1: CAATCTGAATTCCGGTCTCCC
DNA 2: TGGTGGCTACGACGGGATT
B11: GAGGGAA (DNA:RNA)
RNA: B3 RNA with U28G, U29G, C30A, G31A
DNA 1: CAATCTGAATTCCGGTCTCCC
DNA 2: TGGTGGCTACGACGGGATT
B12: UUGCGGC (DNA:RNA)
RNA: B1 RNA with A25U, C27G, G28C
DNA 1: CAATCTGAATTCCGGTCTCCC
DNA 2: TGGTGGCTACGACGGGATT
B13: UGAGGGG (DNA:RNA)
RNA: B1 RNA with A25U, U26G, C27A, C31G
DNA 1: CAATCTGAATTCCGGTCTCCC
DNA 2: TGGTGGCTACGACGGGATT
B14: GCUCUAC (DNA:RNA)
RNA: B3 RNA with A26C, G27U, U28C, C30A, G31C
DNA 1: CAATCTGAATTCCGGTCTCCC
DNA 2: TGGTGGCTACGACGGGATT
B15: UAGUACG (DNA:RNA)
RNA: B3 RNA with G25U, U29A
DNA 1: CAATCTGAATTCCGGTCTCCC
DNA 2: TGGTGGCTACGACGGGATT
B16: GGGGCGG (DNA:RNA)
RNA: B3 RNA with A26G, U28G, U29C, C30G
DNA 1: CAATCTGAATTCCGGTCTCCC
DNA 2: TGGTGGCTACGACGGGATT
B17: UUUAGCC (DNA:RNA)
RNA: B1 RNA with A25U, C27U, G28A, G30C
DNA 1: CAATCTGAATTCCGGTCTCCC
DNA 2: TGGTGGCTACGACGGGATT
B18: CAAGUGU (DNA:RNA)
RNA: B1 RNA with A25C, U26A, C27A, G29U, C31U
DNA 1: CAATCTGAATTCCGGTCTCCC
DNA 2: TGGTGGCTACGACGGGATT
B19: GCUCGAG (DNA:RNA)
RNA: B3 RNA with A26C, G27U, U28C, U29G, C30A
DNA 1: CAATCTGAATTCCGGTCTCCC
DNA 2: TGGTGGCTACGACGGGATT
B20: UGACGAG (DNA:RNA)
RNA: B1 RNA with A25U, U26G, C27A, G28C, G30A, C31G
DNA 1: CAATCTGAATTCCGGTCTCCC
DNA 2: TGGTGGCTACGACGGGATT

biological target: T1, RBFOX1 RRM (Homo sapiens, UniProt Q9NWB1 109-208); test: EMSA; HiTS-Eq, 1 nM pool, 10 min; buffer printed only for the single-RNA assays: 10 mM Tris pH 7.5, 150 mM NaCl, 3.4 mM EDTA, 0.001% NP-40, 30 C; settings: tags: His6 N-terminal (pET28a); label: 5' 32P
T1 sequence: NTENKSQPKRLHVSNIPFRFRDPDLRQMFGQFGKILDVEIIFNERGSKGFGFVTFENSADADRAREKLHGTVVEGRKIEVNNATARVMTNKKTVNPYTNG
Method in brief: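 Purified RbFox RRM (wild type or mutant) was equilibrated for 10 min in 50 µL with 1 nM of a 5′-radiolabelled pool of RNA with 7 randomized nucleotides, its flanks annealed to DNA oligonucleotides, across increasing protein concentrations. Free RNA was separated by 8% native PAGE, excised, reverse-transcribed, PCR-barcoded and sequenced on an Illumina HiSeq 2500. Relative association constants came from read-count changes of each variant against the control reaction, normalised to the cognate motif.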

How did the binding signal turn out when B1 was run?
Its binding signal is 0.00891 KA relative to UGCAUGU.

With B2 as the binder, how does the binding signal read?
The binding signal was 0.0123 KA relative to UGCAUGU.

Which binding signal does the source give for B3 here?
Its binding signal is 0.0167 KA relative to UGCAUGU.

With B4 as the binder, how does the binding signal read?
The binding signal was 0.00211 KA relative to UGCAUGU.

Which binding signal does the source give for B5 here?
The binding signal was 0.00729 KA relative to UGCAUGU.

B6 was tested. Which binding signal did it give?
Its binding signal is 0.00847 KA relative to UGCAUGU.

How did the binding signal turn out when B7 was run?
Its binding signal is 0.00302 KA relative to UGCAUGU.

With B8 as the binder, how does the binding signal read?
Its binding signal is 0.00698 KA relative to UGCAUGU.

How did the binding signal turn out when B9 was run?
The binding signal was 0.0154 KA relative to UGCAUGU.

B10 was tested. Which binding signal did it give?
The binding signal was 0.00257 KA relative to UGCAUGU.

B11 was tested. Which binding signal did it give?
The binding signal was 0.0111 KA relative to UGCAUGU.

For B12, which binding signal is on record?
The binding signal was 0.0107 KA relative to UGCAUGU.

B13 was tested. Which binding signal did it give?
Its binding signal is 0.00637 KA relative to UGCAUGU.

Which binding signal does the source give for B14 here?
Its binding signal is 0.00577 KA relative to UGCAUGU.

B15 was tested. Which binding signal did it give?
Its binding signal is 0.0135 KA relative to UGCAUGU.

With B16 as the binder, how does the binding signal read?
Its binding signal is 0.028 KA relative to UGCAUGU.

How did the binding signal turn out when B17 was run?
Its binding signal is 0.00739 KA relative to UGCAUGU.

Which binding signal does the source give for B18 here?
The binding signal was 0.0111 KA relative to UGCAUGU.

How did the binding signal turn out when B19 was run?
The binding signal was 0.0268 KA relative to UGCAUGU.

B20 was tested. Which binding signal did it give?
The binding signal was 0.0244 KA relative to UGCAUGU.
